Test results reported in publication PMC4336329 (PLoS ONE, 2015).
In all, about 310,000 compounds went through this assay and about 2,200 (0.71%) showed an effect of 50% or more. The effect is printed as a negative number. The list shows a part of the results.

biological target: human ether-à-go-go-related gene (hERG) potassium channel (human, UniProt Q12809); assay: primary screen, population patch clamp on CHO cells stably expressing hERG
Sequence (Q12809 whole entry, looked up): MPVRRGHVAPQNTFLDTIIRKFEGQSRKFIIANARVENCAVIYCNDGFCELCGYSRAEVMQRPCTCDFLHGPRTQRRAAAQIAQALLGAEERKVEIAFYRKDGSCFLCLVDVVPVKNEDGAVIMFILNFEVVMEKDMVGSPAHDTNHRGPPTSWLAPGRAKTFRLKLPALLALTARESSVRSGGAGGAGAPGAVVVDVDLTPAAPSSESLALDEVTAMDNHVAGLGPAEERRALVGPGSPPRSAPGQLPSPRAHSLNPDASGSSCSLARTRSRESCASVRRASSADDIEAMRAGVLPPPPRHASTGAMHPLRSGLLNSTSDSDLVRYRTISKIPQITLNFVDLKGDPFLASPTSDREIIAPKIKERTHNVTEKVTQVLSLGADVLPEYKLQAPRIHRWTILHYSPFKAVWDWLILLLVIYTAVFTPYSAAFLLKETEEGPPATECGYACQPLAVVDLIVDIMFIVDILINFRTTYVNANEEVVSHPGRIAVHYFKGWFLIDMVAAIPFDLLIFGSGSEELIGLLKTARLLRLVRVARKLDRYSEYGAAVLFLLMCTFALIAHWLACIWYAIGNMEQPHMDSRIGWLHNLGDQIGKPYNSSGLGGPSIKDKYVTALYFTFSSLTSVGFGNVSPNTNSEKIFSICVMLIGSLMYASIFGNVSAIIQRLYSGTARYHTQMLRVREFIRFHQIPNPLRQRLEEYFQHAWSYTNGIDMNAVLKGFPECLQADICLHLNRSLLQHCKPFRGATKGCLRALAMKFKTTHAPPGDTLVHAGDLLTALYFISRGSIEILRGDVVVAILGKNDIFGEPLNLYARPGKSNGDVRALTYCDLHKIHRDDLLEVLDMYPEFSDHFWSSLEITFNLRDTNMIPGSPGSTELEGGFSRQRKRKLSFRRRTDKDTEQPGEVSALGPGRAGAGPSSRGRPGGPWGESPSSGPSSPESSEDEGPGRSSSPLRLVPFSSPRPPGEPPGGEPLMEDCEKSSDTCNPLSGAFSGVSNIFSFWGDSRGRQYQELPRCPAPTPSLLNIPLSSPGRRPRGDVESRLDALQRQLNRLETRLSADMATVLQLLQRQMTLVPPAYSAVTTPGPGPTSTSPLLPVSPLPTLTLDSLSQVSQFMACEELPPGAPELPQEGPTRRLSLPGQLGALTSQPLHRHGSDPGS

SMILES | hERG current change (%, negative = inhibition) at 1uM
Cc1ccc(NC(=O)C(C)OC(=O)Cn2cnc3ccccc3c2=O)cc1 (stereo not drawn) | 11.5%
CCOc1ccccc1CN1CCN(C2CCN(c3ccccc3F)CC2)CC1CCO (stereo not drawn) | -17.5%
O=C(NNC(=O)c1ccccc1Br)c1ccc2nc[nH]c2c1 | 8.58%
COc1ccc(S(=O)(=O)NC(C)C(=O)NCc2ccc3c(c2)OCO3)cc1OC (stereo not drawn) | 11.1%
Cl.O=C(OCCN1CCCCC1)c1ccccc1F | 0.107%
Cc1ccc(CNC(=O)C2CCC(=O)N2C(C)C)cc1 (stereo not drawn) | 17.1%
CCc1nc(NC(C)(C)C)c2cnn(-c3ccccc3)c2n1 | 0.926%
CCCCn1c(N(CCOC(C)=O)C(C)=O)nc2ccccc21 | -1.24%
Cc1cc(O)c(C(=O)/C=C/c2cccc([N+](=O)[O-])c2)c(=O)o1 | 10.7%
COc1ccccc1NC(=O)Nc1nnc(Cc2ccc(F)cc2)s1 | 14.8%
COc1ccc(CCNC(=O)CCNS(=O)(=O)c2cccc(Cl)c2)cc1OC | 8.06%
Cc1ccc(-n2c(Cc3noc4ccccc34)n[nH]c2=S)cc1 | 12.2%
CCNc1ccc(C(=O)OCC(=O)NC(=O)NCC(C)C)cc1[N+](=O)[O-] | 11.2%
CO[C@@H]1[C@@H](O[C@@H]2O[C@H](C)[C@@H](O[C@H]3C[C@@](C)(OC(=O)CC(C)C)[C@@H](O)[C@H](C)O3)[C@H](N(C)C)[C@H]2O)[C@@H](CC=O)C[C@@H](C)[C@@H](O)C=CC=CC[C@@H](C)OC(=O)C[C@H]1OC(C)=O | -3.23%
Cc1ccc(/C(O)=C2/C(=O)C(=O)N(c3ccccn3)C2c2ccc(F)cc2)cc1 (stereo not drawn) | 9.9%
CCCCOC(=O)c1ccc(NC(=O)c2ccc(F)cc2F)cc1 | 12.6%
CCCNC(=O)N1CCN(c2nc(C(C)C)c3c(c2C#N)CC(C)(C)OC3)CC1 | 8.3%
CC(=O)N1CCc2cc(S(=O)(=O)NCCCN3CCN(Cc4ccccc4)CC3)ccc21 | -0.451%
CN(C)c1nc(OCCNC(=O)Nc2ccccc2)nc(N2CCCCC2)n1 | 10.8%
Cn1c(=NC(=O)c2cnccn2)sc2ccccc21 | 10.5%
CCOC(=O)c1c(NC(=O)CSc2nccc(=O)[nH]2)sc(C)c1C | 14.6%
S=C(NCCN1CCOCC1)Nc1cccc2ccccc12 | 14.8%

SMILES | hERG current change (%, negative = inhibition) at 1uM
Cc1cccc(NC(=O)N2CCC(NC(=O)c3ccccc3C)CC2)c1 | 8.64%
OC1CN=C2CCCc3c2n(c2ccc(Cl)cc32)C1 (stereo not drawn) | -35.6%
c1ccc(N2CCN(C3CCSC3)CC2)cc1 (stereo not drawn) | 3.25%
CCOc1ncccc1C(=O)OCC(=O)NCCc1ccccc1 | 12.7%
COc1cccc(CN2CCN(Cc3nc(-c4cccs4)oc3C)CC2CCO)c1 (stereo not drawn) | -12.3%
CCN1CCCC1CNC(=O)Cn1nc(C)n2nc(-c3ccccc3)cc2c1=O (stereo not drawn) | -3.14%
Cc1[nH]c(C)c(S(=O)(=O)NCc2ccc(F)cc2)c1C(=O)N1CCCC1 | 8.76%
Cc1cc(C)n(C(=O)CNC(=O)c2ccccc2Br)n1 | 17.6%
CSc1cccc(NC(=O)c2cnccn2)c1 | 7.12%
Cc1ccc(S(=O)(=O)NC(=O)Nc2ccc(F)c(F)c2)cc1 | 11.6%
COCCCNC(=O)C(=O)C1C(=O)Nc2ccccc21 (stereo not drawn) | 11.8%
O=C(Nc1cc(S(=O)(=O)N2CCCCC2)ccc1Cl)c1ccc(F)cc1 | -0.241%
COc1ccc(OCCNC(=O)C(c2ccccc2)c2ccccc2)cc1 | -1.28%
COc1ccc(CN2CCCCC2C)cc1C (stereo not drawn) | -4.24%
Cc1c(-c2cccc(Cl)c2)nc2ccccc2c1C(=O)N1CCC2(CC1)OCCO2 | -7.58%
CC(C)CC(=O)N=C1SC2CS(=O)(=O)CC2N1CCc1ccccc1 (stereo not drawn) | 2.54%
O=C(CCN1CCOCC1)Nc1ccccc1 | 14.8%
COC(=O)C1=C(C(=O)OC)[C@@H]2N(C)c3ccccc3[C@@]23C[C@@H](C(=O)OC)N(C(=O)C2CCC2)C3=N1 | 3.59%
CCCn1c(=O)c2c(C(F)(F)F)cc(-c3cccs3)nc2n(CCC)c1=O | 7.57%
CCOC(=O)N1CCN(Cc2nc3c(c(=O)[nH]c(=O)n3C)n2CCCc2ccccc2)CC1 | -15%
COn1c(SCc2cccnc2)nc2ccccc2c1=O | 1.02%
CC(=O)N1CCc2cc(N=NC3=C(O)CCCC3=O)ccc21 | 9.8%

SMILES | hERG current change (%, negative = inhibition) at 1uM
CCCc1nnc(NC(=O)CN2CCOCC2)s1.Cl | 10.8%
CC(=O)NCCN=Cc1sc2ccccc2c1O | 8.06%
Cc1cc(=O)oc2cc(OCC#N)ccc12 | 11.6%
Cc1cc(C(=O)CCC(=O)N2CCN(c3ccccc3F)CC2)c(C)s1 | 5.31%
Cc1ncc([N+](=O)[O-])n1Cc1ccc(Br)cc1 | 9.01%
O=S(=O)(F)c1ccc2nc(-c3cccc(Sc4ccccc4)c3)cc(Cl)c2c1 | 13.3%
CCCCCC(=O)Nc1cccc(C2=NOC3(C2)C[C@H](C(N)=O)N(C(=O)[C@H]2CCC(=O)N2)C3)c1 (stereo partly drawn) | 20.6%
O=C(CS(=O)(=O)c1ccccc1)NCc1ccco1 | 7.36%
O=c1c(C/C=C/c2ccccc2)c(O)ccn1Cc1ccc(Cl)cc1Cl | 17.1%
COc1ccc(NC(=O)Nc2cc(C(=O)O)ccc2N2CC3CC(C2)c2cccc(=O)n2C3)c(OC)c1 (stereo not drawn) | 5.08%
Cc1ccc(OCCOCCN2CCCC2)c(Br)c1.O=C(O)C(=O)O | -0.528%
CC(=O)Nc1ccc(NC(=O)CSc2ccc3nnc(-c4ccccn4)n3n2)cc1 | 15.7%
Cc1ccnc(NC(=O)c2ccc(Cl)c(S(=O)(=O)N3CCCCC3)c2)c1 | -2.43%
Cc1ccc(N2C(=O)N(CC(=O)Nc3ccc(C)c(C)c3[N+](=O)[O-])C(=O)C2C)cc1 (stereo not drawn) | 11%
Cn1cccc1Cc1nnc(SCC(=O)N2CCCCCC2)n1CCc1ccccc1 | 4.32%
CCc1ccccc1N(CC(=O)Nc1cccc(N(C)S(C)(=O)=O)c1)S(C)(=O)=O | 11.4%
CCOc1ccccc1C1CC(=O)NC2=C1C(=O)CCC2 (stereo not drawn) | 11.1%
CCC1(C)CN(S(=O)(=O)OCC(Cl)(Cl)Cl)C(=O)N1 (stereo not drawn) | 4.55%
CN1CCC/C1=C1/C(=O)N(c2ccccc2)N=C1NC(=O)Nc1cccc(Cl)c1 | 16.6%
C=CCCC(=O)N1CCC(Oc2cccc(C(=O)NCc3ccccn3)c2)CC1 | 8.78%
C/C=C(\C)C(=O)Nc1cccc(C2=NOC3(C2)C[C@H](C(N)=O)N(C(=O)CC#N)C3)c1 (stereo partly drawn) | 15.2%
C[C@]12CC3CC(N)(C1)C[C@@](C)(C3)C2.Cl | 8.56%

SMILES | hERG current change (%, negative = inhibition) at 1uM
Cc1nnn(C23CC4CC(CC(C(=O)NN)(C4)C2)C3)n1 | 10.2%
O=C(COC(=O)c1ccc(Br)cc1)NCCC1=CCCCC1 | 5.75%
Nc1nonc1-n1nnc(C(=O)N/N=C/c2cc(Br)ccc2O)c1CSC1=NCCS1 | 14.7%
O=C(Nc1ccc(F)c(Cl)c1)C1CC(=O)n2c(nc3ccccc32)N1 (stereo not drawn) | 9.65%
CCOc1cccc(N2C(=O)CC(NCc3ccc(S(N)(=O)=O)cc3)C2=O)c1 (stereo not drawn) | 12.5%
CCN1/C(=C/C(=O)c2ccco2)Sc2ccccc21 | 6.78%
CSCC[C@H](NS(=O)(=O)c1ccc(C)cc1)C(=O)N1CCC(C(=O)N[C@@H](Cc2ccccc2)C(=O)O)CC1 | 10.6%
CCN(CC(=O)Nc1cccc(OC)c1)C(=O)c1cnc(Cl)c(Cl)c1 | 18.3%
CC(=O)c1cc2c(cc1NC(=O)c1c(-c3ccccc3)noc1C)OCO2 | 11.2%
Cc1cccc(OCC(=O)Nc2nnc(S(=O)(=O)N3CCC(C)CC3)s2)c1 | 5.25%
Cc1cc(-c2nc(C)c(C(=O)NNC(=O)NC(C)C)s2)no1 | 6.74%
COc1ccc2ccccc2c1C1NC(=O)NC(C)=C1[N+](=O)[O-] (stereo not drawn) | -0.897%
CCOc1ccc(N2C(=O)CC(N(CCc3ccc(OC)cc3)C(=O)/C=C/C(=O)O)C2=O)cc1 (stereo not drawn) | 21.8%
COc1ccc(NC(=O)CSc2nnc(-c3ccccc3)n2Cc2ccco2)c(OC)c1 | 9.82%
CC(C)(C)NC(=O)COc1ccccc1C#N | 20.9%
CCOC(=O)c1cc(=O)n(Cc2ccccc2C)c2ccccc12 | -3.87%
O=C(O)c1cc2ccc3ccccc3c2[nH]1 | 5.32%
Cc1cc(C)c(C2=Nn3c(C)nnc3SC2C)cc1C (stereo not drawn) | 7.4%
O=C(CN(Cc1ccccc1F)C(=O)c1csnn1)NC1CCCCC1 | 16%
CCOc1ccc(OCCNC(=O)C(NC(=O)c2c(F)cccc2F)C(C)C)cc1 (stereo not drawn) | 1.29%
O=C(Cc1ccc(Cl)cc1)NCCS(=O)(=O)N1CCN(c2ccccc2)CC1 | 12.5%
